Structures are written as SMILES. Screen size: about 150,000 compounds; about 540 (0.36%) showed an effect of 50% or more. This is one part of the list.

The experiment concerns Plasmodium falciparum. The experiment is described as follows: Primary screen in NF54 nanoGlo assay, in single point, at 2uM, 72h; a lower Z score goes with more inhibition. The experiment is classed as functional, Erythrocyte. As to conditions: timepoint 72 hour.
`CCc1nnc(Nc2cccc3c2OCC[C@@H]3O)nc1CC`: the “% Inhibition” value is given as 11% and the Z score is listed as -1.36.
In the same order, the values of `Cc1nc(N2CCC[C@H](C(=O)Nc3cccc(C(F)(F)F)c3)C2)c2c(C)c(C)oc2n1` are -2% and 0.16.
On the same counts, the results for `COc1ccc(NS(=O)(=O)c2ccc3oc(Nc4ccc5c(c4)OCCO5)nc3c2)cc1` are -18% and 3.32.
In the same order, the values of `O=C(C[C@H]1COCCN1)Nc1ccccc1OCCc1ccccn1` are 11% and -1.62.
For the compound `CCCC(=O)N1CCS(=O)(=O)CC1`, the “% Inhibition” value is -21% and the Z score is reported as 2.64.
On the same counts, the results for `O=C1N(C2CCOCC2)C[C@H]2CN(Cc3ccccc3F)CCN12` are 0% and -0.03.
As to `O=C(Nc1cnc2ccccc2c1O)N1CCCC1`, the “% Inhibition” value was -16% and the Z score is recorded as 2.92.
Turning to `O=S(=O)(CCc1nnc(-c2ccc(Br)cc2)o1)c1ccc(Cl)cc1`, the “% Inhibition” value was 0% and the Z score was 0.02.
`Cc1cc(C(=O)N(Cc2cnn(C)c2)C2CCCCC2)c(=O)[nH]c1C`: the “% Inhibition” value is reported as -6% and the Z score is 1.13.
In the same order, the values of `CCOc1ccc(NC(=O)C[C@H]2CC(C)(C)OC2=O)cc1` are -15% and 1.88.
`COc1cccc(NC(=O)Cn2c(C)ccc(NS(=O)(=O)c3ccc(C)cc3)c2=O)c1`: the “% Inhibition” value is given as 74% and the Z score is -9.85.
In the same order, the values of `Cc1noc(C)c1N(C)Cc1ccccc1C(=O)O` are -13% and 1.92.
In the same order, the values of `Cc1ccc(NC(=O)N2CCC[C@H](OCc3ccccc3C)C2)cc1` are 15% and -1.67.
On the same counts, the results for `O=C(O)c1cccc(CN2CC(Cc3ccccc3Cl)C2)c1` are -7% and 0.88.
With `COc1cccc(CN2CC3(CCN(C(=O)c4ccc(F)cc4)CC3)CC2=O)c1`, the “% Inhibition” value was -20% and the Z score is 1.88.
Turning to `CN(C)c1cccc(C(=O)N2CCN([C@@H](c3ccccc3)c3ccc(Cl)cc3)CC2)c1`, the “% Inhibition” value came out at 4% and the Z score is recorded as -0.58.
In the same order, the values of `CCCN(Cc1cccnc1)C(=O)c1cccc(=O)[nH]1` are 7% and -1.18.
On the same counts, the results for `CCOc1ccc(-c2cc3c(=O)n(Cc4cc(C)ccc4C)ccn3n2)cc1` are 7% and -0.87.
On to `CC(C)Oc1ccc(NCC(=O)N[C@@H](C)c2cccs2)cc1C(N)=O`, for which the “% Inhibition” value was -5% and the Z score was determined as 0.64.
In the same order, the values of `Cc1noc(-c2nn(C)c3c2CN(C(=O)COc2ccc(F)cc2)CC3)n1` are 1% and -0.1.
In the same order, the values of `Cc1cccc(C(=O)N2C(C(=O)NCC3CCCO3)COC23CCN(C(=O)c2ccccc2C)CC3)c1` (configuration not stated) are -9% and 1.52.
As to `Cc1sc(NC(N)=O)nc1Cc1ccccc1`, the “% Inhibition” value came to 34% and the Z score is recorded as -4.58.
On the same counts, the results for `CCc1cccc(NC(=O)Cn2cc(-c3ccccc3)c3ncn(C4CC4)c(=O)c32)c1` are -6% and 0.9.
In the same order, the values of `Cc1c(C(c2ccc(O)c(Br)c2)c2c(C)n(C)c3ccccc23)c2ccccc2n1C` are 3% and -0.5.
In the same order, the values of `COCc1nc(CN[C@H]2CC(C)(C)OC2(C)C)no1` are -11% and 1.27.
As to `CCCCNC(=O)c1ccc(-c2ccnc3[nH]ccc23)o1`, the “% Inhibition” value stood at 1% and the Z score is -0.19.
In the same order, the values of `CCOCC(=O)NCCn1ccn2nccc12` are -13% and 1.63.
As to `Cc1noc(Cl)c1CCC(=O)N(C)c1nccs1`, the “% Inhibition” value is -10% and the Z score came to 0.98.
In the same order, the values of `CCn1cc(C(=O)NCCS(=O)(=O)CC)cn1` are 8% and -1.03.
In the same order, the values of `COc1cccc(CN2CCC[C@@]3(CCN(Cc4ccccn4)C3)C2)c1OC` are -4% and 0.43.
In the same order, the values of `O=C(CNc1cccc(C(F)(F)F)c1)OCC(=O)N1CCNC1=O` are 32% and -0.58.
As to `Cc1cc(C)n(CC(=O)N2Cc3cccnc3C2)n1`, the “% Inhibition” value is -9% and the Z score amounted to 0.91.
On the same counts, the results for `COc1ccccc1C[C@@H]1CC[C@H](CN2CCCC2)O1` are -16% and 1.94.
In the same order, the values of `COc1ccc(F)cc1S(=O)(=O)N1CCc2ncncc2C1` are -3% and 0.62.
In the same order, the values of `C[C@H](NC(=O)N(C)CC(F)(F)F)c1cc(F)cc(F)c1` are -6% and 0.62.
Take `Cc1ccc(Cn2ccnc2C(=O)N2CCCC2)cc1`: the “% Inhibition” value is recorded as 1% and the Z score is recorded as -0.19.
On the same counts, the results for `O=C(NCc1cn2c(n1)C(=O)N(Cc1ccccc1)CC2)c1cn[nH]c1` are -8% and 1.11.
In the same order, the values of `Cc1ccc(F)cc1CN1CCC(NC(=O)c2cnn(C)c2)CC1` are 1% and -0.16.
For the compound `C[C@@H](CCc1ccccc1)NC(=O)C(C)(C)C`, the “% Inhibition” value is -2% and the Z score is recorded as 0.34.
On the same counts, the results for `O=C(Nc1cnc(Oc2ccccc2)nc1)C1CCCC1` are 2% and -0.45.
Consider `Cc1cccc(-n2nnnc2C2(N3CCCC3)CCCC2)c1`, for which the “% Inhibition” value was -4% and the Z score came to 0.51.
In the same order, the values of `CC(C)(C)OC(=O)N1CCC(c2cnc(N)s2)CC1` are -4% and 0.63.
Take `CC(C)CNC(=O)c1cn2ccnc(-c3ccc(F)cc3)c2n1`: the “% Inhibition” value is reported as -20% and the Z score is reported as 3.13.
For `CCOc1ncccc1NCc1cccc(OCCOC)c1`, the “% Inhibition” value is on record as -13% and the Z score turned out to be 1.12.
In the same order, the values of `CN1CCC(N(CCc2ccccc2)Cc2cncn2C2CC2)CC1` are -16% and 1.76.
In the same order, the values of `NC(=O)c1cccnc1NCC1(CO)CCOCC1` are -1% and 0.09.
In the same order, the values of `Cc1c(F)cccc1C(=O)N[C@@H]1CCCC[C@H]1S(C)(=O)=O` are -14% and 2.15.
As for `CCCn1c(=O)c2sc(N3CCCCC3)nc2n(CC(=O)Nc2ccc3c(c2)OCCO3)c1=O`, the “% Inhibition” value is -27% and the Z score turned out to be 2.38.
On the same counts, the results for `O=C(c1nccnc1-c1nc2ccccc2s1)N1CCCCCC1` are -9% and 1.17.
In the same order, the values of `O=C(NCc1ccc[nH]1)C(=O)Nc1ccc2c(c1)CCC2` are -4% and 0.57.
In the same order, the values of `O=C(NCc1cccnc1)c1nc(-c2ccnc(N3CCCC3)c2)no1` are -3% and 0.46.
`Cc1nc(C2CC2)ncc1C(=O)NCCCN1CCCC1=O`: the “% Inhibition” value is listed as -8% and the Z score turned out to be 1.12.
For the compound `Cc1nnc(N2CCC(NC(=O)c3ccccc3)CC2)c(C#N)c1C`, the “% Inhibition” value is reported as -12% and the Z score came out at 2.37.
On the same counts, the results for `Cc1nccc(-c2cc(O)cc(CC[C@H]3CCCCN3)c2)n1` are -12% and 2.52.
In the same order, the values of `COc1ccccc1C1CCC(C)CN1S(=O)(=O)CCCC#N` (configuration not stated) are -16% and 1.65.
In the same order, the values of `CN(Cc1nccs1)C(=O)c1cc(CCc2ccccc2)no1` are -8% and 1.12.

Usually % Inhibition stands for the change of the read-out against control, counted positive when it falls.

These data come from ChEMBL document CHEMBL4888484, “Replenishing the malaria drug discovery pipeline: Screening and hit evaluation of the MMV Hit Generation Library 1 (HGL1) against asexual blood stage Plasmodium falciparum ,using a nano luciferase reporter read-out” (2022).
